Measurements reported in patent US20090202520A1 (PROMEDIOR, published 2009).

Target: T1, soluble recombinant FcγRIIA (H131 variant) (human, UniProt P12318 36-217)
T1 construct: also called FcγR2A; not shown: C-terminal poly-histidine tail of 6-10 histidines
T1 sequence: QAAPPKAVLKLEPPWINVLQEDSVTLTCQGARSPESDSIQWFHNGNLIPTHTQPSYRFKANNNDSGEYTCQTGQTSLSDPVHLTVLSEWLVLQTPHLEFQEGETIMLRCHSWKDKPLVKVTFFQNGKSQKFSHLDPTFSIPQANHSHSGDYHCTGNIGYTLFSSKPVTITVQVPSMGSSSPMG
Test: SPR, comparison of SAP and CRP affinities

fold affinity of SAP over CRP for the same receptor: 1000 fold
B1: serum amyloid P (SAP) (ligand)
chain: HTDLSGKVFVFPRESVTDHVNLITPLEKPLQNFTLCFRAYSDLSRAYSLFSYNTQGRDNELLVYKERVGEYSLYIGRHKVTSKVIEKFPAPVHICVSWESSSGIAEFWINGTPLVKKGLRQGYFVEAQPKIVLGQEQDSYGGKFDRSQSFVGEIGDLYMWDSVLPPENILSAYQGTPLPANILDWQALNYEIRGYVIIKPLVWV
notes: Pentamer of five non-covalently associated protomers; also called hSAP; human serum amyloid protein P
